# Test results published in article PMC4336329 (PLoS ONE, 2015).
# About 14,000 (4.5%) of roughly 310,000 compounds showed an effect of 50% or more. The effect is printed as a negative number. Some of the results follow.
# Target: human ether-à-go-go-related gene (hERG) potassium channel (human, UniProt Q12809)
# Test: primary screen, population patch clamp on CHO cells stably expressing hERG
# 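Note: peak tail current of the secondary pulse compared with the same well before compound.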
# human ether-à-go-go-related gene (hERG) potassium channel, sequence (Q12809 whole entry, looked up): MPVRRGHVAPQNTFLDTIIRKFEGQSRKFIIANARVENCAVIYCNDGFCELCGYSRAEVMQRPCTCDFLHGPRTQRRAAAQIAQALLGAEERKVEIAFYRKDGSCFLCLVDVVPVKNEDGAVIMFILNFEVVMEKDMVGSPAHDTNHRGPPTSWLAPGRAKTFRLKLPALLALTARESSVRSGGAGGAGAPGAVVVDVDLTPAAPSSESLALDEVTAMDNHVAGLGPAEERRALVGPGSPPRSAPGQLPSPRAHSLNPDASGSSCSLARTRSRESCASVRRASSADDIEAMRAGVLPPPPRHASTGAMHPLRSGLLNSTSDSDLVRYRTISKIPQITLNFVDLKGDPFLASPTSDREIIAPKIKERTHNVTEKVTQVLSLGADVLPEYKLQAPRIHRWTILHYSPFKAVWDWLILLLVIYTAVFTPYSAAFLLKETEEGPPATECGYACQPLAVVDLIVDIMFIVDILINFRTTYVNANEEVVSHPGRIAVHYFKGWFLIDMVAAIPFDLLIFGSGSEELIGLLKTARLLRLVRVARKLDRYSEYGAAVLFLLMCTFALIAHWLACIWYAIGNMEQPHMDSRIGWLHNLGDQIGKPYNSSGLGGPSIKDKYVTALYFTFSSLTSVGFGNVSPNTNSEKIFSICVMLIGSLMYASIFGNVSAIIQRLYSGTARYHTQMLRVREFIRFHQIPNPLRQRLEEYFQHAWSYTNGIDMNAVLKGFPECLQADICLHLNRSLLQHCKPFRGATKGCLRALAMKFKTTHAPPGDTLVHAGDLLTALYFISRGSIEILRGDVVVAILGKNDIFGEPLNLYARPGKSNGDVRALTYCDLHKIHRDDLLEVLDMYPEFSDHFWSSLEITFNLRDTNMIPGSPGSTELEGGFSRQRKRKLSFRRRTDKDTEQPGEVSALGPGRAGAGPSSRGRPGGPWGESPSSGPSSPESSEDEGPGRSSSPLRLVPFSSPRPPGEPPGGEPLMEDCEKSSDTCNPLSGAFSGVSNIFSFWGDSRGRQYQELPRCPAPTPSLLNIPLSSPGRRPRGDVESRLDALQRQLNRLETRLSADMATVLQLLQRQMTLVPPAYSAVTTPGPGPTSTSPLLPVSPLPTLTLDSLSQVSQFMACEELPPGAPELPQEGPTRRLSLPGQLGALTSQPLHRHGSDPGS
row,SMILES,"hERG current change (%, negative = inhibition) at 10uM [%]"
1,COC(=O)c1ccc(Cc2ccc(C(=O)OC)o2)o1,10.6
2,O=c1sc(N2CCN(c3ccccc3F)CC2)nc2ccsc12,2.11
3,CSc1nnc(Nc2ccccc2C)s1,12.8
4,CCCC(C)C(=O)Nc1cc(S(=O)(=O)N2CCCCC2)ccc1N1CCOCC1 (centres unmarked),-27.9
5,O=C(NCc1cccs1)c1nc(-c2cccs2)no1,0.862
6,CC1(C)C(C=C(Cl)Cl)C1C(=O)N(Cc1ccccc1Cl)C1CCS(=O)(=O)C1 (centres unmarked),0.294
7,CCOc1ccc(CN2CCN(C3CCSCC3)CC2CCO)cc1 (centres unmarked),-74.3
8,CCOc1ncccc1C(=O)OCC(=O)Nc1ccc(C)c(S(=O)(=O)N(C)C)c1,4.9
9,O=C(O)CCNC1C=CS(=O)(=O)C1 (centres unmarked),16.9
10,O=[N+]([O-])c1cc(CN2CCN(c3ccccc3)CC2)c(O)c2ncccc12,-7.8
11,COc1ccccc1/C=N/OCC(=O)NCc1ccc2c(c1)OCO2,-8.58
12,CCn1c(C)c(C)c2cc(C(=O)N3CCCC3)ccc21,-14.8
13,COc1ccc(C(=O)OC(C)C(=O)NCC2CCCCC2)cc1S(=O)(=O)N1CCOCC1 (centres unmarked),-23.9
14,CN(C(=O)CSc1nc(O)cc(=O)n1C1CCCC1)c1ccccc1,-47
15,CN(Cc1cc(=O)[nH]c2ccccc12)C(=O)c1ccccc1,0.394
16,O=C(c1ccc(Cn2cc(Br)cn2)o1)n1cccn1,3.57
17,CSCCC(NC(=O)C1CCC(C)CC1)C(=O)OCC(=O)c1ccc(Cl)cc1 (centres unmarked),10.5
18,CCc1ccc(C2N3CC4([N+](=O)[O-])CN2CC([N+](=O)[O-])(C3)C4(C)C)cc1 (centres unmarked),3
19,c1ccc(C2=Nn3c(nnc3-c3cccnc3)SC2)cc1,-25.4
20,O=C(COC(=O)c1cccc(F)c1)Nc1ccc2c(c1)OCCO2,5.53
21,COc1ccc(C(=O)NCC(=O)OCC(=O)c2ccc(Cl)cc2)cc1OC,-58.6
22,CCC(=O)c1cc(F)c(N2CCN(C(=O)Cc3ccccc3)CC2)cc1C,-58.9
23,CCSc1ccccc1C(=O)NCc1ccco1,1.46

row,SMILES,"hERG current change (%, negative = inhibition) at 10uM [%]"
1,Cn1c(SCC(=O)n2c3c(c4ccccc42)CCCC3)nnc1-c1ccccc1,-18.1
2,O=C(Cn1nc(C(=O)O)c2ccccc2c1=O)NCc1ccco1,1.95
3,CC1=Nc2cc(C(=O)N3CCCC3)ccc2Sc2c(C)ccc(C)c21,-19.5
4,Cc1cc(C)c(C)c(S(=O)(=O)NCC(=O)O)c1C,-1.47
5,CN(Cc1cnccn1)C(=O)CC1C(=O)NCCN1Cc1c(F)cccc1Cl (centres unmarked),62.6
6,COc1cc(C(C(=O)NC2CCCCC2)N(C(=O)Cc2c[nH]c3ccccc23)c2ccccc2C)cc(OC)c1OC (centres unmarked),-1.26
7,O=C(NN=C1CCCCC1)NC1CCCCC1,9.13
8,CC(=O)c1cccc(CN2CCc3ccc(NC(=O)C4CCCO4)cc3C2)c1 (centres unmarked),2.44
9,COC(=O)c1c(C)nn(-c2ccc(OC(F)(F)F)cc2)c1-c1snnc1C,-15.4
10,Cc1nc2ccccc2nc1Nc1cccc(Cl)c1,9.24
11,CCCCCN(C(=O)CCC(=O)OCC(=O)c1ccc(C(C)CC)cc1)c1c(N)n(CCCC)c(=O)[nH]c1=O (centres unmarked),8.1
12,N#Cc1ccccc1NC(=O)CSc1cn[nH]n1,7.74
13,CCOC(=O)c1c(C)[nH]c(C(=O)/C(C#N)=C/c2ccc(OCC)cc2)c1C,8.16
14,CCN(CC)S(=O)(=O)c1cccc(NC(=O)COC(=O)c2cccs2)c1,-32.5
15,Cc1ccc(S(=O)(=O)N2CCCOC2CNC(=O)C(=O)NC2CCCC2)cc1 (centres unmarked),-6.95
16,CN(CCCNC(=O)C1CCN(S(=O)(=O)c2cccc3nsnc23)CC1)Cc1ccccc1,-20.8
17,COCCNc1nc2nonc2nc1N1CCCC1c1nccs1 (centres unmarked),9.27
18,O=C(C1=C[C@H](C2CC2)C[C@H](OCCCCO)O1)N1CCN(Cc2ccccc2)CC1,-12.5
19,CCCCSCc1ccc(C(=O)O)o1,1.25
20,C/C(=N/NS(=O)(=O)c1ccc(C(C)C)cc1)c1ccncc1,-0.0607
21,COC(c1ccccc1)c1nnc(CCC(=O)NC2C3CC4CC(C3)CC2C4)o1 (centres unmarked),-3.85
22,COCc1ccc(C(=O)NCC2(N3CCCCC3)CCCCC2)cc1.O=C(O)C(=O)O,-22.5
23,CCCn1nc2cc(C(=O)NCc3ccc(OC)cc3)ccc2c1OCC,2.65

row,SMILES,"hERG current change (%, negative = inhibition) at 10uM [%]"
1,Cn1c(=NC(=O)c2ccccc2[N+](=O)[O-])sc2cc(S(C)(=O)=O)ccc21,-4.33
2,Cc1ccccc1-c1cc(=O)c2c(O)cccc2o1,13.4
3,O=C(NCCc1ccccc1)c1c(O)c2ccccc2[nH]c1=O,29.5
4,Nc1ccccc1SC1CC(=O)N(c2ccc3c(c2)OCO3)C1=O (centres unmarked),14.7
5,O=C(NC1CCN(Cc2ccccc2)CC1)c1ccc(CS(=O)c2ccc(F)cc2)o1 (centres unmarked),-22.4
6,O=C(NC(=S)Nc1ccccc1)c1csnn1,12.4
7,CN(C)CCNC(=O)NC1CCCCC1,7.79
8,CCCCN(C(=O)c1ccccc1F)c1c(N)n(CCC)c(=O)[nH]c1=O,23.4
9,COCCN1C(=O)N[C@@H](c2cccc(F)c2)C(C(C)=O)=C1C,-6.66
10,Cl.c1ccc(CN2CCN(C3CCCSc4ccccc43)CC2)cc1 (centres unmarked),-8.41
11,CCCCc1nc(NCc2ccccc2)c(C#N)c2c1CCCC2,-14.5
12,Fc1ccccc1CSc1nnc(-c2cnccn2)n1Cc1ccco1,-11.2
13,CCC(C)[C@H](Nc1nc(-c2ccccc2)nc2c1oc1ccccc12)C(=O)O.Cl (some centres unmarked),9.37
14,O=C(NCc1ccccn1)c1c(O)c2cccc3c2n(c1=O)CC3,-11.5
15,C=CCN1c2ccccc2[C@]23C[C@@H](C(=O)OC)N(C(=O)C4CCC4)C2=NC(C(=O)OC)=C(C(=O)OC)[C@H]13,-12.3
16,O=C(NCCCCCNC(=O)c1ccccn1)c1ccccn1,29.2
17,O=S(=O)(NCCc1ccccc1)c1cccc2nsnc12,-21.2
18,CC1=NN(C(=O)c2ccc(Cn3nc(C)c([N+](=O)[O-])c3C)cc2)C(O)(C(F)(F)F)C1 (centres unmarked),-28.8
19,Cc1cc(N(CN2CCCC2=O)C(=O)c2ccc(F)cc2)no1,-9.46
20,CCC(Cc1ccccc1)NC(=O)/C=C/c1ccco1 (centres unmarked),9.2
21,CC(=O)Nc1ccc(NC(=O)c2c(C)nn(Cc3ccccc3)c2Cl)cc1,3.78
22,CCOn1c(=O)c(-c2ccc(C)cc2)[n+]([O-])c2ccccc21,19.9
23,O=C(CCSCCC(=O)Nc1ccccc1F)Nc1ccccc1F,3.3

row,SMILES,"hERG current change (%, negative = inhibition) at 10uM [%]"
1,C=CCn1c(SCC(=O)N(CC)CC)nc(O)cc1=O,13.2
2,Cc1cc(NC(=O)CSc2nc(-c3cccs3)cc(C(F)(F)F)n2)no1,13.3
3,CC(C)COP(=O)(c1ccc(N(C)C)cc1)C(Nc1ccccc1)c1ccccc1 (centres unmarked),-7.2
4,CCn1nc(C(C)C)cc1C(=O)N1CCCC(CO)(Cc2ccc(F)cc2F)C1 (centres unmarked),-13.1
5,CCOC(=O)c1c(-c2ccc(C)cc2)csc1NC(=O)CCSc1nnc2ccccn12,13.3
6,O=c1[nH]cnc2nc(-c3ccccc3)c(-c3ccccc3)nc12,-24.1
7,Cc1nc2sc3c(c2c(=O)o1)CCC3,4.18
8,CN(C)c1nc(NCc2ccccc2)nc(N/N=C/c2ccc(Br)cc2)n1,13.3
9,CC(C)C[C@H]1C(=O)N2CCC[C@H]2[C@]2(O)O[C@](NC(=O)[C@@H]3C=C4c5cccc6[nH]c(Br)c(c56)CC4N(C)C3)(C(C)C)C(=O)N12.CS(=O)(=O)O (some centres unmarked),9.86
10,CC(C)(C)c1ccc(-c2csc(NC(=O)CN3C(=O)NC4(CCCCC4)C3=O)n2)cc1,18
11,CCOC(=O)N1CCC(c2cc(=O)n3[nH]ccc3n2)CC1,-3.47
12,CSc1nc(SCC(=O)NCc2ccco2)c2c3c(sc2n1)COC(C)(C)C3,-19.2
13,Cc1nc(SCc2ccccc2F)c2cnn(-c3ccccc3)c2n1,13
14,CCCCNC(=O)N1CCN(c2ccccc2OC)CC1,5.56
15,CC(C)COc1ccc(CSCCNC(=S)Nc2ccccc2)cc1,12.6
16,O=C(Nc1sc2c(c1C(=O)O)CCC2)c1cccs1,20.3
17,COc1ccc(/C(C)=N/Nc2ncc(Cl)cc2Cl)c(O)c1,-5.66
18,O=C(NC1CCCCC1)c1cc(S(=O)(=O)N2CCCC2)ccc1Cl,2.24
19,Cc1nc2c(c(=O)c3ccccc3n2C)c(=O)n1-c1ccccc1,1.57
20,COc1ccc(-c2[nH]ncc2CN2CCCC2c2nonc2C)c(F)c1 (centres unmarked),3.15
